Like-named read-outs stand apart in the source and are kept apart here.
Key:
hIL-1R-I = molecular target: T1, hIL-1R-I (Homo sapiens, UniProt P14778); test: Biacore affinity/kinetic analysis of His6-tagged Z variants, human IL-1R-I; assay type: binding; conditions: for Kd: read-out: KD
T1 construct: purchased R&D Systems 269-1R/CF
T1 sequence (P14778 18-569): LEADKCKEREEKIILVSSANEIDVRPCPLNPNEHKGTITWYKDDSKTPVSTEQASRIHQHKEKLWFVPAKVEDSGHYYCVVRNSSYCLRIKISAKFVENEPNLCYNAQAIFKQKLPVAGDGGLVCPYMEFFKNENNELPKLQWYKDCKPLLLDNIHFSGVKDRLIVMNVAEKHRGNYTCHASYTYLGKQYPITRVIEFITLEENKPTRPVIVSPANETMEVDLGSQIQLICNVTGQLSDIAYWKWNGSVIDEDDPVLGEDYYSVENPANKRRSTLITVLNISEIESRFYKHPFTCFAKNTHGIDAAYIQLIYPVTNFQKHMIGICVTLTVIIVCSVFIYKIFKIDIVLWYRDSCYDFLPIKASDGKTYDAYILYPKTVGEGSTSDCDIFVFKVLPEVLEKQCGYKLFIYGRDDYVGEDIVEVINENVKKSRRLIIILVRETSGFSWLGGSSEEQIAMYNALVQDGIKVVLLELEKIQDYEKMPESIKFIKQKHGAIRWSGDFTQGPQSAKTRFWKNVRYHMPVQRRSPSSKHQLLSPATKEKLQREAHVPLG
Description: Affinities (KD) for human and cynomolgus IL-1R-I were determined for His6-tagged Z variants using a Biacore 2000 instrument (GE Healthcare). hIL-1R-I or cIL-1R-I-His6 was immobilized on the carboxylated dextran layer in different flow cells of a CM5 chip (GE Healthcare, cat. no. BR100012). The immobilization was performed using amine coupling chemistry according to the manufacturer's protocol. Acetate pH 4.5 (GE Healthcare, cat. no. BR100350) was used for ligand dilution and HBS-EP (GE Healthcare, cat. no. BR100188) was used as running buffer. One flow cell surface on the chip was activated and deactivated for use as blank during analyte injections. In the kinetic experiment, HBS-EP was used as running buffer, the flow rate was 50 μl/min and the temperature was 25° C. The analytes, i.e. the Z variants, were each diluted in HBS-EP buffer to final concentrations of 40 nM and 10 nM, and were injected over the target chip surfaces for 2 min, followed by dissociation in running buffer for 8 min. Kinetic constants were calculated from the obtained sensorgrams using a 1:1 binding model, in the BiaEvaluation software 4.1 (GE Healthcare).
The kinetic constants (kon and koff) and affinities (KD) for human and cynomolgus IL-1R-I were determined for His6-tagged Z variants using a Biacore 2000 instrument (GE Healthcare). The experiment was run essentially as described in Example 2, using 100, 10 and 1 nM of the Z variants. The analyte injection time was 3 min followed by 15 min dissociation and 2×5 s glycine pH 3.0 (GE Healthcare, cat. no. BR100357), supplemented with 0.5 M NaCl, was used for regeneration of the surfaces between the cycles. Kinetic constants were calculated from the obtained sensorgrams of two or three concentrations of the respective Z variant, using a 1:1 binding model in the BiaEvaluation software 4.1 (GE Healthcare). His6-tagged Z12967 was included in the assay for comparison.
The kinetic constants (kon and koff) and affinities (KD) for human and cynomolgus IL-1R-I were determined for His6-tagged Z variants using a Biacore 2000 instrument (GE Healthcare). The experiment was run essentially as described in Example 5, using 48, 12, 3 and 0.75 nM of the Z variants. The analyte injection time was 3 min followed by 6 min dissociation and 2×5 s glycine pH 3.0, supplemented with 0.5 M NaCl, was used for regeneration of the surfaces between the cycles. Kinetic constants were calculated from the obtained sensorgrams of three or four concentrations of the respective Z variant, using a 1:1 binding model in the BiaEvaluation software 4.1 (GE Healthcare). His6-tagged Z12967 (SEQ ID NO:9), Z16065 (SEQ ID NO:268), Z16163 (SEQ ID NO:359) and Z18557 (SEQ ID NO:1205) were included in the assay for comparison.

[1] = Circular dichroism (CD) spectroscopy analysis, melting temperature and refolding; assay type: physicochemical; conditions: for Melting temperatures (Tm): His6-tagged Z variants, CD variable temperature measurement; for thermo-stability and α-helical content versus Z variants having alanine in position X5: His6-tagged, valine or isoleucine in position X5 of the BM (Example 9)
Description: Purified His6-tagged Z variants were diluted to 0.5 mg/ml in PBS. For each diluted Z variant, a CD spectrum at 250-195 nm was obtained at 20° C. In addition, a variable temperature measurement (VTM) was performed to determine the melting temperature (Tm). In the VTM, the absorbance was measured at 221 nm while the temperature was raised from 20 to 90° C., with a temperature slope of 5° C./min. A new CD spectrum was obtained at 20° C. after the heating procedure in order to study the refolding ability of the Z variants. The CD measurements were performed on a Jasco J-810 spectropolarimeter (Jasco Scandinavia AB) using a cell with an optical path length of 1 mm.
CD was analyzed for His6-tagged Z variants, as described in Example 2.

hIL-1R-I-Fc = molecular target: T2, hIL-1R-I-Fc (Homo sapiens, UniProt P14778); test: EC50 analysis of Z variants by ELISA target titration; assay type: binding; conditions: periplasmic Z-ABD; hIL-1R-I-Fc 100 to 0.01 nM; first matured library (Example 4)
T2 construct: purchased Creative BioMart IL1 RI-771H
T2 sequence (P14778 with tags, fused parts or gaps limits assumed): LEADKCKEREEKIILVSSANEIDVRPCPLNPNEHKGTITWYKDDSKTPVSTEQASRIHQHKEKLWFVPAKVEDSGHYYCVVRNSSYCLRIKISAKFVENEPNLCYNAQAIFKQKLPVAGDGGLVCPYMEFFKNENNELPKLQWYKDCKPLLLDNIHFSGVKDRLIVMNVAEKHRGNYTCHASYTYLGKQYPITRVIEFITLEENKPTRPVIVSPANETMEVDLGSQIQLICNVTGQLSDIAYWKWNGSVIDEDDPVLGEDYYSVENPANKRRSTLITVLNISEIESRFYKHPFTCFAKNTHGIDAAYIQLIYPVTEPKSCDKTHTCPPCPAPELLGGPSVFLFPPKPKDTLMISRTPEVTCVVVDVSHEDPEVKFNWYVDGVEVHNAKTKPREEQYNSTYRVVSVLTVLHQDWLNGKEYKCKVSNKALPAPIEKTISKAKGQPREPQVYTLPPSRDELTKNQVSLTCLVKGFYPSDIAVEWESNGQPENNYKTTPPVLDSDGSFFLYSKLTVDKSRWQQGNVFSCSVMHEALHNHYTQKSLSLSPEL
Description: (§1) A selection of IL-1R-I binding Z variants was subjected to an analysis of response against a dilution series of hIL-1R-1-Fc using ELISA as described above. The target protein hIL-1R-1-Fc was diluted stepwise 1:10 from 100 to 0.01 nM. As a background control, the Z variants were assayed with no target protein added. Obtained data was analyzed using GraphPad Prism 5 and non-linear regression, and the EC50 values (the half maximal effective concentration) were calculated.
as §1, with “calculated. A periplasmic extract with Z12967 (SEQ ID NO:9) was analyzed in parallel for signal comparison.” for “calculated.”
as §1, with “binding” for “binding Z variants”, “20” for “100”, “0.002” for “0.01”, “calculated. Periplasmic extracts with Z12967, Z16065 and Z16218 (corresponding to SEQ ID:9, 268 and 414, respectively) were analyzed in parallel for signal comparison. As negative control, a periplasmic extract of ABD001 was used.” for “calculated.”

[2] = His6-Z polypeptides binding to human IL-1R-I, Biacore, Table 19

Substance	koff (hIL-1R-I; [2]) [s⁻¹]	kon (hIL-1R-I; [2]) [M⁻¹ s⁻¹]	Kd (hIL-1R-I; [2]) [nM]	EC50 (hIL-1R-I-Fc) [nM]	Melting temperatures (Tm) ([1]; Table 21) [°C]	further results
Z18823 (VDAKYAKETEEIQMEIFSLPNLTRRQYTAFIRKLLDDPSQSSELLSEAKKLNDSQAPK; His6 tag; Engineered IL-1R-I binding polypeptide)	0.0018	4.7e+06	0.38		52	
Z18898: IL-1R-I binding Z variant (VDAKYAKELEAIQMEIFYLPNLTRRQYVAFIRKLLDDPSQSSELLSEAKKLNDSQAPK; Engineered IL-1R-I binding polypeptide)	0.0044	6.7e+07	0.066		59	
Z19147: IL-1R-I binding Z variant (VDAKYAKELEEIQMEIFYLPNLTRRQYTAFIRKLLDDPSQSSELLSEAKKLNDSQAPK; Engineered IL-1R-I binding polypeptide)	0.0043	2.8e+07	0.15		57	thermo-stability and α-helical content versus Z variants having alanine in position X5 [1]: not substantially different
Z16062: IL-1R-I binding Z variant (VDAKYAKEIEEAQMEIFYLPNLTRKQYTAFIRKLFDDPSQSSELLSEAKKLNDSQAPK; Engineered IL-1R-I binding polypeptide)						Kd (hIL-1R-I; His6-Z polypeptides, 100, 10 and 1 nM (Example 5)): 0.44 nM; Melting temperatures (Tm) ([1]; Table 13): 54 °C
Z19151: IL-1R-I binding Z variant (VDAKYAKEVEDIQLEIFALPNLTRRQYTAFIRKLLDDPSQSSELLSEAKKLNDSQAPK; Engineered IL-1R-I binding polypeptide)	0.007	2.8e+07	0.25		59	thermo-stability and α-helical content versus Z variants having alanine in position X5 [1]: not substantially different
Z18817 (VDAKYAKEVEEIQMEIFRLPNLTRRQYTAFIRKLFDDPSQSSELLSEAKKLNDSQAPK; His6 tag; Engineered IL-1R-I binding polypeptide)	0.0048	2.8e+07	0.17		60	
Z16246: IL-1R-I binding Z variant (VDAKYAKEVEDAYMEIFKLPNLTRKQYTAFIRKLLDDPSQSSELLSEAKKLNDSQAPK; Engineered IL-1R-I binding polypeptide)				0.39		
Z16241: IL-1R-I binding Z variant (VDAKYAKEVEDAYWEIYALPNLTRKQYTAFIRKLLDDPSQSSELLSEAKKLNDSQAPK; Engineered IL-1R-I binding polypeptide)				0.49		
Z15929: IL-1R-I binding Z variant (VDAKYAKETERAQMEIFALPNLTRRQYTAFIRKLLDDPSQSSELLSEAKKLNDSQAPK; Engineered IL-1R-I binding polypeptide)				0.24		
Z16053: IL-1R-I binding Z variant (VDAKYAKETERAQMEIFALPNLTRKQYTAFIRKLLDDPSQSSELLSEAKKLNDSQAPK; Engineered IL-1R-I binding polypeptide)				0.25		
Z16161: IL-1R-I binding Z variant (VDAKYAKEVEYAQMEIYSLPNLTRRQYTAFIRKLLDDPSQSSELLSEAKKLNDSQAPK; Engineered IL-1R-I binding polypeptide)				0.25		
Z17296: IL-1R-I binding Z variant (VDAKYAKEVETAYFEIYALPNLTRKQYTAFIRKLLDDPSQSSELLSEAKKLNDSQAPK; Engineered IL-1R-I binding polypeptide)				0.32		
Z15996: IL-1R-I binding Z variant (VDAKYAKEVESAQMEIFNLPNLTRKQYTAFIRKLFDDPSQSSELLSEAKKLNDSQAPK; Engineered IL-1R-I binding polypeptide)				0.25		
Z16155: IL-1R-I binding Z variant (VDAKYAKETWYAQMEIFSLPNLTRKQYTAFIRKLLDDPSQSSELLSEAKKLNDSQAPK; Engineered IL-1R-I binding polypeptide)				0.29		

More lines, main results first:

koff (hIL-1R-I; [2]) [s⁻¹]	kon (hIL-1R-I; [2]) [M⁻¹ s⁻¹]	Kd (hIL-1R-I; [2]) [nM]	EC50 (hIL-1R-I-Fc) [nM]	Substance	Melting temperatures (Tm) ([1]; Table 21) [°C]	further results
0.011	1.8e+07	0.64		Z15932: IL-1R-I binding Z variant (VDAKYAKEVEEAQMEIFILPNLTRKQYTAFIRKLLDDPSQSSELLSEAKKLNDSQAPK; Engineered IL-1R-I binding polypeptide)	60	
			0.22	Z16084: IL-1R-I binding Z variant (VDAKYAKEIEIAQMEIFELPNLTRKQYTAFIRKLFDDPSQSSELLSEAKKLNDSQAPK; Engineered IL-1R-I binding polypeptide)		
			0.26	Z16277: IL-1R-I binding Z variant (VDAKYAKEVEDAYYEIYELPNLTRKQYTAFIRKLLDDPSQSSELLSEAKKLNDSQAPK; Engineered IL-1R-I binding polypeptide)		
			0.22	Z16243: IL-1R-I binding Z variant (VDAKYAKEVEEAYMEIYQLPNLTRKQYTAFIRKLLDDPSQSSELLSEAKKLNDSQAPK; Engineered IL-1R-I binding polypeptide)		
			0.24	Z16156: IL-1R-I binding Z variant (VDAKYAKEIERAQMEIFSLPNLTRKQYTAFIRKLLDDPSQSSELLSEAKKLNDSQAPK; Engineered IL-1R-I binding polypeptide)		
